In the supplement of paper PMC10126150:
Sequences with one replicate were seen in a single cluster, so their values are uncertain.

Test system: ATP
Test: switch fluorescence ratio, 500 uM ATP over buffer (Cy3 cluster intensity, sum of 5 cycles each) (fold (ratio)); higher = stronger signal-on switching upon ATP binding; sequences stand for … in TCGTCGGCAGCGTCAGATGTGTATAAGAGACAGTTTTTTTTTTTTTTTTTTTTTTTTT…TC
Settings: aptamer strand: ATP DNA aptamer (quencher-CACCTGGGGGAGTATTGCGGAGGAAGG + anchor), 100 nM annealed; ATP concentration: 500 uM; one replicate
Outline: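 Imaging in selection buffer was followed by imaging after 15 min with 500 uM ATP at 22 °C, for Cy3-labelled switching-strand clusters annealed to 100 nM quencher-labelled ATP aptamer on a modified Illumina MiSeq flow-cell. Five of these buffer/ATP cycles ran, separated by NaOH stripping and re-annealing. The fluorescence ratio per cluster is summed target-cycle over summed buffer-cycle Cy3 intensity, averaged per switch-domain sequence; clusters outside 100-1000 RFU were removed.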
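Further: ATP exposure 15 min at 22 °C before imaging.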

Row | Sequence | switch fluorescence ratio
1 | TGAGACCGCC | 0.997
2 | TGATTCAGG | 1.02
3 | AGATGCGCCG | 0.964
4 | CAGGGTACCT | 1.02
5 | TCGCAAAAAA | 1.4
6 | TTATACGCAT | 2.94
7 | AACATATAT | 1.01
8 | CCGGTGTAGT | 1.06
9 | TTCGGTATGA | 0.99
10 | TAGATGGAGA | 0.97
11 | TTGAAGGTGA | 1.16
12 | ATGCAAGGAG | 1
13 | TCCCTGTTC | 1
14 | CTTTCCTCAC | 1.92
15 | TACCCGTAAC | 1.37
16 | TTCAAGACTC | 1.16
17 | TAAATAATAC | 1.1
18 | TATGGGCTTG | 1
19 | TCGGGAGTAG | 1.01
20 | GCCGTTAAAC | 1.03
21 | CACCGTGCTC | 1.39
22 | ATTATCGCAG | 1.03
23 | TTTTCCTAGG | 1.14

Row | Sequence | switch fluorescence ratio
24 | GGCAAACAAG | 1.04
25 | GGGGCCCA | 0.988
26 | GAACGAAATT | 1.02
27 | CCTGCCCTCC | 2.75
28 | GGGAACAAGG | 1.01
29 | ACATAAGTTC | 0.982
30 | GGATCCACCG | 1.07
31 | CTACCCTTGA | 1.04
32 | AACATCTCAT | 0.986
33 | ATCAAGCCA | 1.05
34 | GCGAAGTCAA | 1.08
35 | AAGGTTTCGC | 1.02
36 | AGAGTAAA | 1
37 | GTCGACATGG | 0.935
38 | AATCGATCGA | 1.07
39 | CTCGTCTAGG | 1.13
40 | ACGGGTACTG | 0.99
41 | TCTAAGACTC | 1.03
42 | ATATGAGGGT | 0.959
43 | AGCTTTGTGA | 1.05
44 | ACCGTGCATT | 1.04
45 | TCGATGACGT | 1.02
46 | GGCTTATACG | 1.08

Row | Sequence | switch fluorescence ratio
47 | AAAGAACAAA | 0.994
48 | TCCTGTACCT | 1.16
49 | CGTCACATCG | 1.02
50 | TGGCCACCGT | 0.999
51 | ACTTCTCCCA | 1.26
52 | TATACCCGTT | 0.984
53 | TTTAGTAATT | 1.15
54 | CGTGTGCTAC | 1.23
55 | GTAAACGCCG | 1.02
56 | AGCAGGCAGC | 0.995
57 | CTTCCATATG | 0.965
58 | TATTAGCTTT | 0.963
59 | GTTAATGAAA | 1.02
60 | TCCCACTTGC | 1.01
61 | ACTTTAATTA | 0.989
62 | CGCTTTTTCA | 1.01
63 | CGTTACTCTT | 1.08
64 | TATTCGGGTG | 1
65 | GGGATAGAAT | 0.995
66 | TCGTCAATTA | 1.05
67 | TCATAGTAGC | 0.954
68 | GGGGCTGGAT | 1
69 | CTCCATCTTC | 1.07

Row | Sequence | switch fluorescence ratio
70 | ACGGTCCGCT | 1.13
71 | CGTATTATTC | 1.04
72 | CAGCCAGCCG | 1.01
73 | TTACGGGCTG | 0.998
74 | CGTTATGCA | 0.999
75 | CTTCTGGGGG | 1.01
76 | CCGGAACTTG | 1.02
77 | ATGGAGAAGG | 0.998
78 | CGATAGTCG | 0.999
79 | ACGTGTTTAC | 1.11
80 | ACCCATTGCC | 0.961
81 | CACTTTGG | 0.98
82 | CCCCTCGG | 1.21
83 | TAGCATATAA | 1.39
84 | AACTCTCTTA | 1.02
85 | GTAGTATGGG | 1.03
86 | CAGTGATACT | 1.91
87 | TTTCTTTGTG | 0.99
88 | AGGCTGCA | 0.994
89 | TCGAAGGCAA | 1.14
90 | GCACTTTATG | 0.979
91 | GAGGTCGCG | 1.01
92 | TACCATCATT | 0.994

Row | Sequence | switch fluorescence ratio
93 | TTGCGTCAGC | 0.952
94 | CGCCCTAGGT | 1.42
95 | AAACCCTTCT | 1.09
96 | TTGTCAGTAC | 1.57
97 | ATGGAAAGCT | 1.22
98 | TCTCTGTCG | 1.02
99 | AACCGTGCGC | 1.18
100 | TGCCGTCCGA | 1.01
101 | TTCGGCTAGT | 0.971
102 | ATCCGCACAG | 5.8
103 | TTCCTGTCAT | 0.988
104 | TGTGTCGCAA | 1.37
105 | TGTGTTAACA | 0.976
106 | AACGCGTTT | 1.04
107 | CCGCCTCGGG | 1.21
108 | TCGATTCGTT | 1.36
109 | TACAGGGAAT | 1.03
110 | AACCATTTC | 1.03
111 | CCGCTCTTGT | 1.24
112 | AGTCCGGATC | 0.973
113 | TTCTAGTACA | 0.994
114 | TAAGTCGAAC | 1
115 | TCTGTCAGCT | 0.988

Row | Sequence | switch fluorescence ratio
116 | TTGTTATGCA | 1.03
117 | TTGACGTTAT | 1.26
118 | TCAAAGACA | 1.01
119 | TGGGTGAGTG | 0.929
120 | CTAGCCGGTG | 0.987
121 | TCCCCAGCTT | 1.49
122 | CCTCCACGGA | 2.88
123 | TTTTGACACC | 0.981
124 | TTTCCGCCG | 1.11
125 | ATCTGGACAC | 1.02
126 | TAATCGGTAT | 0.978
127 | GGGAACGAGC | 0.947
128 | GCTATCGGGG | 0.978
129 | ATTGCTCCT | 0.999
130 | CCGAGCCGG | 1.07
131 | TGCTAATGTT | 1
132 | TATCTTTATA | 0.974
133 | TTGTGCAGCT | 1.03
134 | TTTGGTGGCC | 1.03
135 | CCGGTAGTAT | 1.19
136 | GCTTGGTTGA | 0.993
137 | ATGGGGTCCC | 1.02
138 | GTGTGAAGT | 1.02

Row | Sequence | switch fluorescence ratio
139 | GTTAATTTCG | 1.04
140 | CCTGGGGTCC | 1.04
141 | GGAGAGCCTA | 1.04
142 | ATTGGCCGGC | 1.11
143 | GCGAGCTGGG | 1
144 | TCCTGATTTA | 0.99
145 | GTGCGGTCGT | 0.983
146 | ATGGTAGGT | 1.01
147 | TTCGCTCGTG | 0.986
148 | GCCAGGAACT | 1.01
149 | CTGAGTGTCA | 0.969
150 | CTTGGACTGT | 1.01
151 | TCATAGGGAA | 1.01
152 | TGCTGACCGT | 1.01
153 | ACTTGCGTT | 0.963
154 | TCCGTTCCG | 1.09
155 | TGCGGAACG | 1.03
156 | AAGAATGGG | 1.02
157 | TTTCTGAACT | 1.06
158 | CTCCAGAACA | 0.971
